Test results as given in the RNAGym collection of RNA variant scans (doi:10.7554/elife.90254).
The source gives no read counts; variants with many changes may rest on few reads.

B1: LINE1-mini (parent)
chain: GGCAGAGCUCAACACAGCGUGGCAAAGUGGCUGUGGCUAGACUGCC

Variants of: B1
Assay: self-cleavage, relative activity (ratio to wild type); higher = more cleavage; in vitro, sequencing; the parent is a self-cleaving ribozyme

Variant | self-cleavage
G2U C18G G22U | 0.03
G2U G17A A25U U34G | 0
G2U C10A U32G | 0.01
G2U C10G A41G G44A | 0.02
G2U U9A G21C | 0.04
G2U G5C U28A | 0.02
G2U G19A G35C A39C | 0.04
C3A A16C A24C | 0.14
G2U A25C G40C C46A | 0.03
G2U C15G C18G | 0.03
G2U C15A G17A C18A U28C G29U G40U | 0.01
G2U C3U C31A G36U | 0.06
G2U C13U G17U G36U | 0.1
C3A A4U C15G C31A G36C C37A | 0.02
G2U C13U A24G G27A U38C | 0.06
C3A A11U C31U U34G | 0
C3A A6C A12G C23U | 0.11
G2U U9A A25C G33U C45A | 0.07
C3A A6U A25C | 0.14
G2U G19U U28G | 0.03
G2U U9A C10A G22A G30U U34G U38A | 0.01

Variant | self-cleavage
C3A A4C G21U U43C | 0.03
C3A A11U A24C C31A | 0.03
C3A A4U A6U C10A C18U G30A C31G | 0.02
G2U C18G G21C C37U C42A | 0.03
G2U A26G U34C G35U G36A C37A | 0.01
G2U G7A A12C | 0.06
G2U U32A A39G | 0
G2U G21U U43A | 0.02
G2U U9C G19C C42A C45G | 0.04
G2U C10G G35C | 0
G2U C3G G30A | 0.07
G2U C15A C18U C31U U32G C42U G44A | 0.03
C3A A11C C15A A16G A25U A26U | 0.06
G2U C10G G17U G33C | 0.01
G2U A12C C15A G29U G33C G36C A39G | 0
G2U G5A C23U C31A | 0.03
G2U G22C G35A C46U | 0.03
G2U G29A C45A | 0.39
G2U A16C G36C | 0.02
G2U C13A A14C G29A | 0.02
G2U G33C G44U C46G | 0.02

Variant | self-cleavage
G2U A12U G22U A26U | 0.13
G2U C18U C23U C46U | 0.04
G2U U9C A25G C46A | 0.02
G2U G22C G40U C42U | 0.13
G2U G17C G36U | 0.03
G2U C15A G19A U43G | 0
G2U G5U C10A A11C C23A | 0.01
G2U G7A C13G C31A | 0.01
G2U G7C U9G | 0.02
G2U C3A C46A | 0.06
G2U C10U A26U | 0.02
G2U G27A G29C U32G | 0.02
G2U G7U G17A U34A C42A | 0
G2U A11G G27U | 0.03
C3A A14C G29C C42U | 0.02
G2U A24U C42G | 0.02
G2U C13U G19U C23U A39U | 0.03
C3A A6C A16G U20C U38A | 0.06
G2U U38A G40C U43G | 0.03
G2U C15G A16G U28G | 0.01
G2U A25G C46U | 0.04

Variant | self-cleavage
G2U C3U A25U G27A | 0.3
G2U C10A C13G G17C G22C | 0.01
G2U A11U G17C G36C | 0.01
C3A A16G G44A | 0.42
C3A A16G G44U | 0.16
G2U C10A C31A | 0
G2U G5C C23G C31U | 0.01
G2U G19U G36U | 0.04
C3A A6G G44A | 0.07
G2U C15U C23G G35C C37A | 0.02
G2U C3A U32C G35C | 0.09
G2U C8A U28C | 0.04
C3A A12G A14U C15U G19U G21A | 0.03
G2U U38C C42U | 0.02
G2U G5A G30A G33A | 0.02
G2U U20A U34A U43C | 0.01
G2U U9G C42U | 0.02
G2U G27U G30A A41C U43G C45U | 0.02
G2U C10U G27C | 0
G2U U9G U20A C23U A25C C37A | 0.12
